In PubChem BioAssay AID1461 (National Center for Advancing Translational Sciences (NCATS), 2008):
Out of some 220,000 compounds screened, about 2,300 (1%) were called active. This list was built around the results that the source calls inconclusive (neither active nor inactive); the mix of calls is not that of the screen. Calls come from the whole dose curve; as a rule, active = well fitted inhibition curve with a large enough effect; inconclusive = small, poorly fitted or top-dose-only effect, or effect the other way; inactive = no such curve, though single readings can be large or run the other way. Potencies of inconclusive entries are left out as doubtful fits.

Target: Neuropeptide S receptor (Homo sapiens) (UniProt Q6W5P4)
Sequence of UniProt Q6W5P4 (Q6W5P4 whole entry, looked up): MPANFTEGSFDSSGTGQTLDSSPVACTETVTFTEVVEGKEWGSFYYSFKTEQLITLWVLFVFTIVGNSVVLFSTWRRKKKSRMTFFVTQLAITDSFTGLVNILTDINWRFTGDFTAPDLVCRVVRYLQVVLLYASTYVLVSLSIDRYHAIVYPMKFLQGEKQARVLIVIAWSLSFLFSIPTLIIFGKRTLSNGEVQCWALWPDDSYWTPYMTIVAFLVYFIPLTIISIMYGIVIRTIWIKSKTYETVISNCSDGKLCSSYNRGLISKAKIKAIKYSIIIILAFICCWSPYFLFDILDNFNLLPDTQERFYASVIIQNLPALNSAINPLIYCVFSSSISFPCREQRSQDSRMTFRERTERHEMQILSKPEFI
Assay: qHTS Assay for Antagonists of the Neuropeptide S Receptor: cAMP Signal Transduction; note: nearly all actives have a fitted effect of over 50% in size
Settings: CHO-NPSR cells, cAMP TR-FRET, antagonist mode; activity change, negative = inhibition: at 38.3 µM (top of the series) unless noted
% is set by controls: 0 for no effect and ±100 for the full control effect; potency is the fitted concentration of half-maximal effect; tags give direction and shape of the fitted curve.

SMILES | Potency | activity change, negative = inhibition
Cc1nc(NC(C)c2ccccc2)c2c3c(sc2n1)CCC3 (configuration not stated) | inconclusive [inhibitor, partial curve] | –
O=c1[nH]c(CN2CCN(S(=O)(=O)c3ccc4ccccc4c3)CC2)nc2ccccc12 | inactive | –
O=C(OCCN1CCCCC1)c1ccccc1Cl | inactive | –
COC(=O)c1ccc(NC(=O)CCN2CCCCC2)cc1 | inconclusive [inhibitor, single point] | –
O=[N+]([O-])c1cc(Cl)cc(/C=N/NC(=S)Nc2cc(S(=O)(=O)N3CCOCC3)ccc2Cl)c1O | inconclusive [activator, single point] | –
COc1cccc2cc(C(=O)N3CCN(c4ncccn4)CC3)c(=O)oc12 | inconclusive [inhibitor, single point] | –
COC(=O)CC1(C(=O)OC)Oc2ccc(Br)cc2C(=O)N1c1cc(Cl)cc(Cl)c1 (configuration not stated) | inconclusive [activator, partial curve] | –
NS(=O)(=O)c1ccc(NC(=S)NCc2cccs2)cc1 | inactive | –
COc1ccc(S(=O)(=O)N2CCN(c3nc4ccccc4nc3-n3nc(C)cc3C)CC2)cc1 | inconclusive [inhibitor, partial curve] | –
O=C(NCCc1cccs1)C12CN(Cc3ccccc3)CC1C(c1cccc([N+](=O)[O-])c1)=NO2 (configuration not stated) | inconclusive [inhibitor, full curve, poor fit] | –
CCCCCc1cc(=O)oc2c(C(CCN(CC)CC)c3ccc(OC)cc3)c(OC)cc(OC)c12 (configuration not stated) | inconclusive [inhibitor, single point] | –
Oc1ccc(Cl)cc1-c1cc(-c2cccc(Br)c2)n[nH]1 | inactive | –
COc1cc(NC2c3ccccc3C(=O)N2Cc2ccccc2Cl)cc(OC)c1 (configuration not stated) | inconclusive [inhibitor, single point] | –
COc1cc(Cn2c(=O)oc3ccc(C)cc32)ccc1OC(C)C | inactive | –
Cc1c(C(=O)c2ccc(Cl)cc2Cl)cnc2cc3c(cc12)OCO3 | inactive | –
COc1ccc(CNC(=O)/C=C/c2ccc(OCCCF)cc2)cc1 | inactive | –
CCCCC1NC(C(=O)O)CS1 (configuration not stated) | inactive | –
CCOC(=O)N1CCN(S(=O)(=O)c2c(C)nn(C)c2C)CC1 | inconclusive [inhibitor, single point] | –
CCS(=O)(=O)n1nc(-c2ccc(Cl)cc2)nc1SCc1ccccc1 | inconclusive [inhibitor, single point] | –
Cn1c(N)c(C#N)c2c(c1=S)CSC(C)(C)C2 | – | inactive: 4.47% [at 7.67 µM]
O=C(Cc1ccc(Cl)cc1)Nc1ccncc1 | inactive | –
CC(C)CC(C(=O)OCC(=O)Nc1ncc(Cl)cc1Cl)N1C(=O)c2ccccc2C1=O (configuration not stated) | inconclusive [inhibitor, partial curve] | –
CC1CC(C)CN(CC(=O)N2CCCc3c2c(=O)oc2ccc(OCc4ccccc4)cc32)C1 (configuration not stated) | inconclusive [inhibitor, single point] | –
COc1ccc(-c2ccc(SCC(=O)N3CCOCC3)nn2)cc1OC | inconclusive [inhibitor, single point] | –

SMILES | Potency | activity change, negative = inhibition
Cc1ccc2c(Cl)cc(Cl)c(OCC(=O)NC3CCS(=O)(=O)C3)c2n1 (configuration not stated) | inactive | –
Oc1ccc(/C=N/NC2=NCCCCC2)cc1 | inactive | –
CCC(C)(C)n1nnnc1C(c1cc2cc(OC)c(OC)cc2[nH]c1=O)N1CCc2ccccc21 (configuration not stated) | inconclusive [inhibitor, partial curve] | –
COC(=O)c1cccc2c1-c1ccccc1/C2=N/O | inconclusive [inhibitor, single point] | –
CCOC(=O)N/N=C/c1c(C)nn(-c2ccccc2Cl)c1Cl | inconclusive [activator, single point] | –
CCOc1cc(NC(=O)c2ccco2)c(OCC)cc1NC(=O)Cc1ccc(OC)c(OC)c1 | inconclusive [inhibitor, partial curve] | –
Cn1c(SCC(=O)NCC2CCCO2)nnc1-c1c[nH]c2ccccc12 (configuration not stated) | inactive | –
O=C(O)c1cc(-c2ccncc2)nc2ccc(S(=O)(=O)N3CCOCC3)cc12 | inactive | –
COC(=O)CSc1nnc(-c2sc3ccccc3c2Cl)o1 | inconclusive [inhibitor, single point] | –
N/C(Cc1cccc2ccccc12)=N\OC(=O)Cc1cccs1 | inactive | –
Cc1ccc2nc(-c3ccc(NS(C)(=O)=O)cc3)cc(-c3ccccc3)c2c1 | inconclusive [inhibitor, single point] | –
CCC(C(=O)OC)n1cnc2c(nnn2-c2ccc(OC)cc2)c1=O (configuration not stated) | inactive | –
CC(O)[C@@H](O)[C@H]1CNc2nc(N)[nH]c(=O)c2N1 (some centres not stated) | inconclusive [inhibitor, single point] | –
COc1ccc2nc(NC(=O)CSc3nc4cccnc4n3C)sc2c1 | inconclusive [activator, single point] | –
Cc1ccc(Nc2ncccc2C(=O)NCc2cccs2)c(C)c1 | inconclusive [inhibitor, single point] | –
O=S(=O)([N-]c1nc2ccccc2nc1-n1cc[n+](Cc2ccccc2)c1)c1ccc(Cl)cc1 | inconclusive [inhibitor, single point] | –
COc1ccc(OC)c(NC(=O)C23CCC(C)(C(=O)C2)C3(C)C)c1 (configuration not stated) | inactive | –
COc1cc(S(=O)(=O)N(Cc2ccco2)C2CCCC2)ccc1-n1cnnn1 | inconclusive [inhibitor, single point] | –
CCOc1cccc(NCc2cc3c(C(C)(C)C)nn(-c4ccccc4)c3[nH]c2=O)c1 | inconclusive [inhibitor, single point] | –
COC(=O)c1sccc1NC(=O)c1c(-c2ccccc2)noc1C | inactive | –
CCOC(=O)CSc1nc2cc3c(cc2cc1C)OCO3 | inactive | –
O=C(Nc1ccc(Cl)cc1)NC1CCCC1Cc1ccco1 (configuration not stated) | inconclusive [inhibitor, single point] | –
Cc1nn(C)cc1S(=O)(=O)NC1CCCC1 | inactive | –
COc1ccc(/C=N/NC(=O)c2cccc(Br)c2)cc1Cn1cc(Cl)cn1 | inconclusive [inhibitor, single point] | –

SMILES | Potency | activity change, negative = inhibition
C=C(C)c1ccc(C(C)(C)NC(=O)N(Cc2ccccc2)Cc2ccco2)cc1 | inconclusive [inhibitor, partial curve] | –
CCOc1cccc2cc(C(=O)N3CCc4ccccc4C3)c(=O)oc12 | inactive | –
COc1cccc2cc(C(C)N(CCCN3CCOCC3)C(=S)Nc3ccc(C)c(C)c3)oc12 (configuration not stated) | inactive | –
N#CC(C(=O)c1ccccc1Cl)=C1SCCCS1 | inconclusive [activator, single point] | –
CCn1c(CCCOc2ccc(Cl)cc2Cl)n[nH]c1=S | inconclusive [activator, single point] | –
COCCCN(C(=S)Nc1cc(Cl)cc(Cl)c1)C(C)c1ccccn1 (configuration not stated) | inconclusive [inhibitor, single point] | –
Cc1nn(-c2ccccc2)c2sc(C(=O)N(CC(=O)NC(C)(C)C)Cc3ccco3)cc12 | inconclusive [inhibitor, partial curve] | –
CC(=O)Nc1ccc(C(=O)OCc2ccc(Cl)cc2)cc1 | inconclusive [inhibitor, single point] | –
CCCCC(CC)CNS(=O)(=O)c1ccc2c(c1)CCN2C(=O)CCC(=O)O (configuration not stated) | inconclusive [inhibitor, single point] | –
O=c1cc(-c2ccc(O)cc2)oc2cc(O)cc(O)c12 | active: 25.1 µM | –
O=C(C(Cc1ccccc1)n1cccc1)N1CCN(c2cccc(Cl)c2)CC1 (configuration not stated) | inconclusive [inhibitor, partial curve] | –
Fc1ccc(CNc2nc3ccccc3n3nnnc23)cc1 | inconclusive [inhibitor, single point] | –
COc1cc(C)ccc1OCCOc1cc(C)ccc1Cl | active: 10 µM | –
COc1ccccc1-n1c(O)c(C=NCc2ccccn2)c2ccccc2c1=O | inconclusive [activator, single point] | –
CC(O)CNc1nc2sc3c(c2c(=O)n1CCc1ccccc1)CCCCC3 (configuration not stated) | inactive | –
Clc1cccc(Cl)c1Cn1c(-c2cccnc2Cl)nc2ccccc21 | inconclusive [inhibitor, single point] | –
N#Cc1c(N)nc2c(c1N)CC(CO)O2 (configuration not stated) | inactive | –
Clc1ccc(C2=NN(c3ccccc3)C(c3ccco3)C2)cc1 (configuration not stated) | inconclusive [activator, single point] | –
Cc1ccc(S(=O)(=O)N2CCCCC2)cc1NC(=O)Cc1c[nH]c2ccccc12 | inconclusive [inhibitor, full curve, poor fit] | –
Cc1cc(NC(=O)c2ccc(F)cc2F)n(-c2nc3ccccc3[nH]2)n1 | inconclusive [activator, single point] | –
CCC(c1nnnn1Cc1ccccc1)N(Cc1cc2cc(OC)ccc2[nH]c1=O)CC1CCCO1 (configuration not stated) | inconclusive [inhibitor, partial curve] | –
CC(=O)C(N=Nc1ccccc1)(Sc1nnc(-c2ccccc2)n1-c1ccccc1)C(C)=O | inconclusive [inhibitor, single point] | –
O=c1c(/C=C(\O)c2ccc(F)cc2)nc2ccccc2n1-c1ccccc1 | inconclusive [inhibitor, partial curve] | –
COc1cc(NC(=O)CN2CCN(S(=O)(=O)c3ccc(C(C)C)cc3)CC2)cc(OC)c1 | inconclusive [inhibitor, full curve, poor fit] | –
